Assay results as given in the supplement of paper PMC7826260.
This is one part of the list. Viral Rep nickase domains cut single-stranded DNA in vitro for 1 h at 37 °C with 3 µM enzyme; only the middle of the 90-letter strands is printed. The score is log2 (uncut reads / reads without enzyme); strong cutting gives strongly negative numbers. There is no active / inactive call. The scaling is to total reads; uncut strands gain when others are lost, and binding without cutting may add a little.

Key:
Assay in all cases: uncleaved DNA left, log2 of reads against the no-enzyme library (log2 ratio); higher = less cleavage (more negative = more Rep cleavage of the k-mer); sequences stand for … in CTCGTCCG…ACCGGAGA
[1] = tested on: T1, Rep nickase domain of Muscovy duck circovirus
T1 sequence (residues 1-111 of Rep, tag left off): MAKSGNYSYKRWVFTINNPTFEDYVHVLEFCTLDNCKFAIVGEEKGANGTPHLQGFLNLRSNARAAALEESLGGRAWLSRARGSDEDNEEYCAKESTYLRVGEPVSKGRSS
Procedure: (§1)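 A pool of 90-nt single-stranded DNAs with seven random bases just before the constant AC of the nick site (name = the seven bases) was cut by 3 µM recombinant His6-SUMO-tagged Rep nickase domain (300 nM DNA, 50 mM HEPES pH 8.0, 50 mM NaCl, 1 mM MnCl2, 1 h, 37 °C, three replicates). Uncut DNA was amplified and sequenced.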

[2] = tested on: T2, Rep nickase domain of banana bunchy top virus
T2 sequence (residues 1-94 of Rep, tag left off): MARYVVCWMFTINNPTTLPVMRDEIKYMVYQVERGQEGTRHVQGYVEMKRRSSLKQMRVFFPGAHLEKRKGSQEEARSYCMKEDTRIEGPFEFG
Procedure: as §1

[3] = tested on: T3, Rep nickase domain of cabbage leaf curl virus
T3 sequence (residues 1-116 of Rep, tag left off): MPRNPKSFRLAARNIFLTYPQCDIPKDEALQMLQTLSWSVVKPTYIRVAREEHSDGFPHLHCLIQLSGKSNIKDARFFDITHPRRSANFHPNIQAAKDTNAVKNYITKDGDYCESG
Procedure: as §1

[4] = tested on: T4, Rep nickase domain of chickpea chlorotic dwarf virus
T4 sequence (residues 1-124 of Rep, tag left off): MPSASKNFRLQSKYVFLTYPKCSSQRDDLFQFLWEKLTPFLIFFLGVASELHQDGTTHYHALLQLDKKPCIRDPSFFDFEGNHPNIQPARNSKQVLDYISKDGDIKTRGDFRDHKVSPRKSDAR
Procedure: as §1

[5] = tested on: T5, Rep nickase domain of faba bean necrotic yellows virus
T5 sequence (residues 1-98 of Rep, tag left off): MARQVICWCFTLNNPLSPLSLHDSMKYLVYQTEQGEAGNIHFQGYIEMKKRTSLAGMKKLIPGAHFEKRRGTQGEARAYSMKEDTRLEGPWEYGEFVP
Procedure: as §1

[6] = tested on: T6, Rep nickase domain of maize striate mosaic virus
T6 sequence (residues 1-117 of Rep, tag left off): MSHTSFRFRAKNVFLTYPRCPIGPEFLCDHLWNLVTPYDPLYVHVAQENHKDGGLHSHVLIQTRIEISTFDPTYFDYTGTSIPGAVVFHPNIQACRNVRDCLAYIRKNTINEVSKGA
Procedure: as §1

[7] = tested on: T7, Rep nickase domain of porcine circovirus 2
T7 sequence (residues 2-116 of Rep, tag left off): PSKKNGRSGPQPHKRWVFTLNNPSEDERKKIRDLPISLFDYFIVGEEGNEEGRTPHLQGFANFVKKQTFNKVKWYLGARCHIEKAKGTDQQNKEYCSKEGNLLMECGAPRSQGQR
Procedure: as §1

[8] = tested on: T8, Rep nickase domain of tomato golden mosaic virus
T8 sequence (residues 1-124 of Rep, tag left off): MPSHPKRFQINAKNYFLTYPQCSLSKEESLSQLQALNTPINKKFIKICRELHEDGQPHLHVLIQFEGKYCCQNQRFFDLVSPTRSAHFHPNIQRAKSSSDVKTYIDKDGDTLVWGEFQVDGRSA
Procedure: as §1

[9] = tested on: T9, Rep nickase domain of tomato yellow leaf curl virus
T9 sequence (residues 1-136 of Rep, tag left off): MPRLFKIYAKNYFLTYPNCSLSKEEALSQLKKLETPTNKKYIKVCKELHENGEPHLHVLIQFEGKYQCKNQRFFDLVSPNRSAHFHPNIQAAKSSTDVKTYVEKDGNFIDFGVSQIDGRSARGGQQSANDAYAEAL
Procedure: as §1

[10] = tested on: T10, Rep nickase domain of wheat dwarf virus
T10 sequence (residues 1-137 of Rep, tag left off): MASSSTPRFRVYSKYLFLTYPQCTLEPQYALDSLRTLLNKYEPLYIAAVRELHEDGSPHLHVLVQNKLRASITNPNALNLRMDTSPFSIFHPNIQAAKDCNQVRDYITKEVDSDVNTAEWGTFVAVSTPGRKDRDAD
Procedure: as §1

Sequence	uncleaved DNA left (log2) [1]	uncleaved DNA left (log2) [2]	uncleaved DNA left (log2) [3]	uncleaved DNA left (log2) [4]	uncleaved DNA left (log2) [5]	uncleaved DNA left (log2) [6]	uncleaved DNA left (log2) [7]	uncleaved DNA left (log2) [8]	uncleaved DNA left (log2) [9]	uncleaved DNA left (log2) [10]
TCTTCCC	-0.0814	-0.0964	-0.00725	-0.387	-0.243	-0.502	-0.238	-0.25	-0.0862	-0.0316
GGTCCCG	-0.0125	0.0603	-0.326	-0.378	-0.0491	-0.485	-0.127	0.0201	0.0122	0.0801
GCGAGCC	0.0853	0.0592	0.0565	0.447	-0.00086	0.115	-0.313	0.068	0.0931	0.0809
CAGTCGC	-0.0156	-0.0469	-0.095	0.597	-0.0584	0.841	-0.587	-0.0298	0.0714	-0.132
TAGTTAG	0.0466	-0.0864	-0.776	-0.778	0.0651	-1.29	-0.376	0.0151	-0.0569	-0.204
TATAGCT	-0.026	-0.148	-0.967	-2.66	0.0824	-1.17	-0.647	-0.0837	-0.045	-0.158
ACAACAT	0.0555	0.0427	0.394	0.522	0.0688	0.405	0.2	0.0599	-0.0382	0.214
AATTCGG	-0.0199	-0.0124	0.474	1.35	0.0502	1.49	-0.0101	0.137	-0.0956	0.102
TAGCAGG	0.0657	0.0174	0.199	0.623	0.0485	0.472	0.12	0.0692	0.0438	0.0656
GCTCAGA	0.143	0.0879	0.164	0.572	0.149	-0.0359	0.143	-0.0177	0.136	0.058
CTATATT	-4.11	-3.34	-3.4	-3.53	-0.778	-2.65	-3.69	-3.72	-0.126	-3.47
CTATGTG	-0.0272	0.0337	-0.773	-0.082	0.198	-1.03	0.189	0.143	0.0757	-0.2
GAAACAT	0.064	0.137	0.87	1.91	0.031	2.19	0.237	0.0626	0.1	0.238
GGTCCTT	-0.0592	0.0668	0.531	1.04	-0.104	1.96	0.0454	-0.00097	0.0989	0.141
GATGCCA	0.0325	0.0174	0.0293	0.458	-0.145	0.637	0.0149	0.0147	-0.101	-0.0141
TGAATGA	0.0434	-0.0332	0.0217	0.43	-0.0976	0.55	-0.03	-0.0292	-0.099	-0.0319
CATGGCT	0.124	0.0394	-0.494	-0.834	0.205	-1.03	0.319	0.0327	0.144	-0.0378
GCTGTCG	0.124	0.0145	0.0477	1.43	0.0395	1.06	0.0109	0.133	-0.00437	-0.0541
CTTGGAG	0.0147	-0.00572	-0.825	-0.438	-0.0217	-0.931	0.164	-0.0187	0.122	-0.106
GCCAAGT	-0.0783	0.1	0.255	0.415	-0.0865	-0.148	0.0981	0.123	0.103	0.0683
AATCAAG	-0.0173	-0.0406	-0.909	-0.526	0.0133	-1.28	0.156	-0.0721	-0.0173	-0.175
GGAGACA	0.203	0.245	0.998	2.27	0.06	2.34	0.37	0.172	0.053	0.305
ACCGAGC	0.0873	-0.0317	-0.366	-0.0132	-0.00908	-0.613	0.0554	0.0459	-0.0406	0.0215
CGGATAG	-0.0265	0.0341	-0.223	0.302	-0.00793	-0.537	0.0327	-0.00795	0.0591	0.00661
ATCTCTG	-0.0604	-0.0574	-0.17	0.0803	-0.0604	-0.148	-0.0188	-0.0957	-0.123	-0.0455
GGGAATT	-0.092	0.0316	0.679	1.86	-0.0733	2.12	0.0542	-0.11	-7.91e-05	0.00985
GGGGAGG	0.126	0.145	0.86	1.77	-0.00516	2.27	0.342	0.0922	0.0608	0.21
TACTAGT	-3.54	-3.09	-3.05	-2.49	-0.145	-0.472	-3.74	-0.223	-0.0749	-0.149
GATTCTT	-2.87	-3	0.00512	-1.74	-0.341	1.01	-3.35	-0.315	0.0244	-0.0923
ATTTACA	-0.111	-0.00509	-0.331	-2.69	0.0182	-0.794	-0.266	-0.0547	0.053	-0.0364
